# Source: PubChem BioAssay (NCI)
#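 Method: 48-hour compound exposure of cells in 96-well plates, five concentrations, linear interpolation of endpoints. GI50: concentration for 50% inhibition of growth. At the TGI there is no net growth.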
# Test system: NCI-H322M lung
# Assay: DTP human tumour cell line panel, 48 h
SMILES,GI50 [µM],TGI [µM]
N#Cc1cccc(/C(N)=N/C(N)=N/c2nc3ccccc3s2)c1,4.33,> 100
CN1CCN(c2ccc(Nc3nc(NCCCNS(=O)(=O)c4cccc(F)c4)c4sccc4n3)cc2)CC1,5,16.9
